Test results reported in PubChem BioAssay AID1478 (National Center for Advancing Translational Sciences (NCATS), 2009).
Several values for one entry are separate records, joined by “and”; a condition that tells them apart may be missing. Equal values may be shown once. Screen size: about 200,000 compounds; about 860 (0.43%) were called active. The shares of active, inactive and inconclusive entries below differ from those in the screen. The call rests on the fitted dose curve; in most records, active means well fitted inhibition curve with a large enough effect; inconclusive means small, poorly fitted or top-dose-only effect; inactive means flat fitted curve, though single readings scatter. Potencies of inconclusive entries are doubtful fits and often do not repeat.

The compounds below were run against Cruzipain (Trypanosoma cruzi) (UniProt P25779) (assay: qHTS Assay for Promiscuous and Specific Inhibitors of Cruzain (with detergent)). Conditions: purified cruzain, Z-FR-AMC fluorescence, 0.01% Triton.
Outline: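 Detergent-containing run (0.01% Triton X-100) in acetate buffer pH 5.5 with 5 mM DTT: enzyme at 1.5 nM final, 15 min compound preincubation at room temperature, then 2 uM Z-FR-AMC substrate. Activity taken as 60 s fluorescence increase at 360/450 nm.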
Further: nearly all actives have a fitted effect of over 40% in size.
Potency means the concentration at half of the fitted maximal effect; tags describe the fitted curve by direction and shape.
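Wherever max response, negative = inhibition is given: plate controls were neutral wells for no effect and buffer without enzyme for full effect.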

Chain of UniProt P25779 (P25779 whole entry, looked up): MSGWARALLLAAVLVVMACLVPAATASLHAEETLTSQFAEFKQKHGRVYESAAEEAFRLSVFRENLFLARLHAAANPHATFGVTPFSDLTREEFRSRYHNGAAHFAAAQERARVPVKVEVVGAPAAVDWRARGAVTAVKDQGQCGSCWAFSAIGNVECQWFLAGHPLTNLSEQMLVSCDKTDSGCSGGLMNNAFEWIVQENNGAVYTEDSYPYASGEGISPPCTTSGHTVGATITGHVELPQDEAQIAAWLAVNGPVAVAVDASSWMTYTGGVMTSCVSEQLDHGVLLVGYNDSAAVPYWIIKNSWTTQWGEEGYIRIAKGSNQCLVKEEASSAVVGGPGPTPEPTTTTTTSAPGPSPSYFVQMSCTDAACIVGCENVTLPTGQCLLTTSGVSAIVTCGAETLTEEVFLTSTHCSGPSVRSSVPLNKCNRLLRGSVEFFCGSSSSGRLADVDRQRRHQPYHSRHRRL

Row | SMILES | Potency | max response, negative = inhibition
1 | CCCN(CCC)CCCNC(=O)c1cc2cc3ccc(OC)cc3nc2o1 | active: 25.1 µM | 
2 | CCN(CC)c1cccc(O)c1 |  | inactive: 1.41%
3 | O=c1cc(O)c2sc(Nc3cccc(C(F)(F)F)c3)nc2[nH]1 |  | inactive: -8.88%
4 | COCCN(CCOC)Cc1c(O)ccc2c3c(c(=O)oc12)CCC3 | inconclusive: 35.5 µM [inhibitor, single point] | 
5 | O=C(Cc1ccc(Cl)cc1)NCC(c1cccs1)S(=O)(=O)c1ccc(F)cc1 (stereo not drawn) |  | inactive: -4.56%
6 | Cn1c(=N)c(S(=O)(=O)c2ccc(F)cc2)cc2c(=O)n3ccccc3nc21 | active: 31.6 µM | 
7 | COc1ccc(CNC(=O)CSc2ncc(S(=O)(=O)c3ccc(C)c(Cl)c3)c(=O)[nH]2)cc1 |  | inactive: -7.37%
8 | CCOC(=O)c1ccc(N=Cc2nc(-c3ccccc3)oc2OC(C)=O)cc1 | active: 14.1 µM | 
9 | Cc1cc(=O)oc2c3c(ccc12)OCN(Cc1ccc(Cl)cc1)C3 | inconclusive: 35.5 µM [inhibitor, single point] | 
10 | CCc1nnc(NC(=O)CN2C(=O)/C(=C/c3cc(OC)c(OC)c(OC)c3)SC2=S)s1 | inconclusive: 0.562 µM [inhibitor, full curve, poor fit] | 
11 | CN(C)CCNC(=O)c1cc2c(s1)-c1ccccc1OC2 | inconclusive: 31.6 µM [inhibitor, single point] | 
12 | Fc1ccc2[nH]c3c(NCCN4CCOCC4)ncnc3c2c1 | inconclusive: 28.2 µM [inhibitor, single point] | 
13 | CCOCC(=O)Nc1cc(-c2cn3cccnc3n2)ccc1C | inconclusive: 35.5 µM [inhibitor, single point] | 
14 | CCSc1nnc(NC(=O)/C=C/c2ccc3c(c2)OCO3)s1 | active: 15.8 µM | 
15 | CCS(=O)(=O)N1CCc2cc(C(=O)Nc3cc(OC)c(Cl)cc3OC)ccc21 |  | inactive: -6.52%
16 | CCCc1ccc(-c2ccc(/C=C/C(=O)O)cc2)nc1 | inconclusive: 15.8 µM [inhibitor, partial curve] | 
17 | Fc1ccc(N2CCN(c3ncnc4c3nc3n4CCCC3)CC2)cc1 |  | inactive: 0.221%
18 | Oc1c(Cl)cc(Cl)cc1Sc1cc(Cl)cc(Cl)c1O | inconclusive: 31.6 µM [inhibitor, partial curve, poor fit] and inconclusive: 15.8 µM [inhibitor, partial curve] and inconclusive: 28.2 µM [inhibitor, single point] | 
19 | O=C(c1cc2ccc3cccnc3c2[nH]1)N1CCN(c2cccc(Cl)c2)CC1 |  | inactive: -6.04%
20 | CC(C)CC1=C/C(=C/c2ccc(-c3ccccc3)o2)C(=O)O1 | inconclusive: 25.1 µM [inhibitor, single point] | 
21 | CC(=O)Nc1ccc(-c2cc(-c3ccc(NC(C)=O)cc3)nc(-c3ccc(NC(C)=O)cc3)n2)cc1 | inconclusive: 28.2 µM [inhibitor, single point] | 
22 | CCC(=O)N1c2ccc(C)cc2C2=NNC(=S)NC21O (stereo not drawn) | inconclusive: 1 µM [inhibitor, full curve, poor fit] | 
23 | CN1CCN(C(CNC(=O)c2c(F)cccc2F)c2ccc3c(c2)OCO3)CC1 (stereo not drawn) |  | inactive: -2.56%
24 | CCOC(=O)c1c(-c2ccccc2)oc2ccc(OCC)cc12 | inconclusive: 28.2 µM [inhibitor, single point] | 
25 | Clc1ccc(-c2nnc(-c3ccco3)nc2N2CCCCC2)cc1 |  | inactive: -21.3%
26 | CCC(C)NCC(=O)Nc1ccc(-c2nc3cc(NC(=O)CNC(C)CC)ccc3o2)cc1 (stereo not drawn) | inconclusive: 22.4 µM [inhibitor, single point] | 
27 | CN1C(=O)/C(=C2/C=CC=CN2C)OC1=S | inconclusive: 39.8 µM [inhibitor, single point] | 
28 | O=C(O)CSCCc1ccccc1 |  | inactive: 2.59%
